According to paper PMC12136788:
The list shows a part of the results.

B1: chrX:109746815:109746816:+_ENSMUSG00000025529_ENSMUST00000071814|perfect_dup|FALSE|FALSE (ssRNA)
RNA: GGGAGUUCUACAGUCCGACGAUCGGUUUUAAAGUCACAAUGCCUACACUGGUGAAUCUUCCUACCCUUAUGAAUAUCACUAUGUUUUUUAAGCUCUGAAGGACGAUGAAAACCUUUAUCACAGACUUCACAUUUGUGAGGAAACAACAGAGGAUUGAGCAUCA
B2: chr12:57037365:57037366:-_ENSG00000110955_ENST00000262030|hu_hu|motif|central (ssRNA)
RNA: GGGAGUUCUACAGUCCGACGAUCCUUGCCAACUCCAGCACCACCAAAAAGCCCAAUUUUGCCACCCUUGGCAUAGGGAGCGGGCAGAUCGACAACCUUGAUACCAGUCACCAGAAUUUCCUGCUCAACACUCAUUUCCAUGAACAACAGAGGAUUGAGCAUCA
B3: 24222573_24222693_920_3pUTR_ENSG00000173960_ENST00000309033|human|control|control (ssRNA)
RNA: GGGAGUUCUACAGUCCGACGAUCUCUGAAUGAUGACAGCAUUCUGUAAAUCUGCUUCUUCCAGUGUGAGUGUCUCAUCUAGCAACCUGAGGACAGGAAGAGCUGUUGCCAGGGAAAACGGAGGACUUCUUUGAGAUCCUUGGUCAACAGAGGAUUGAGCAUCA
B4: chr16:732453:732454:+_ENSG00000103266_ENST00000219548|hu_hu|FALSE|FALSE (ssRNA)
RNA: GGGAGUUCUACAGUCCGACGAUCCGCCAGGUAGGGCAGGGAACCUCAGUAGUCCUCCACCCAGCCAUUCUCAGAGAUGAAUGCGUCAAUAACCUCCUUCAUAGCCAAGUUGGGGAUGAGCUGUUCCUGGGUCAGGGGGCUCCGCAACAGAGGAUUGAGCAUCA
B5: chr4:115894766:115894767:+_ENSMUSG00000028698_ENSMUST00000030464|mus_hu|mus_mus_mus_hu_True|1_28 (ssRNA)
RNA: GGGAGUUCUACAGUCCGACGAUCUUCCACACGGAAAUGUACUUCGGGUUUUCCAACGGCCAGUACCAGUCCGGCCAAACUACCCGAACAGGGUCCUCCCCCUCUCUUCUCUCCUCCACAACAAAAUGCCCCCGAACCCCGAACCAACAGAGGAUUGAGCAUCA
B6: chr1:74301520:74301521:+_ENSMUSG00000006304_ENSMUST00000006467|perfect_dup|motif|central (ssRNA)
RNA: GGGAGUUCUACAGUCCGACGAUCGAAGACUACUGUGACUCUGUCUUUCUUAGAUUCCACAUACAUGGUCUCAUCAUCCCGGUAAUGGAUAACUGCUCUGUUCUCUCCUUCUUUGCCCUCUUCUUGGAAUUGGAAGUAUUUCUCCAACAGAGGAUUGAGCAUCA
B7: chr6:17796276:17796277:+_ENSMUSG00000029534_ENSMUST00000053148|mus_hu|FALSE|FALSE (ssRNA)
RNA: GGGAGUUCUACAGUCCGACGAUCUCUCCAGGCUUUCUGCAUUAUUGCAUCUGCGGGACGCAGAUGGUCCGAGUCACAAGUAAAGAAUGUCUGGUGGUCUUGGGCAGAGAGAUUCAUGUCAUAGUAAGUAAGAGGCUCUCGUCCCAACAGAGGAUUGAGCAUCA
B8: chr13:41657021:41657022:+_ENSG00000120688_ENST00000379487|hu_hu|motif|central (ssRNA)
RNA: GGGAGUUCUACAGUCCGACGAUCGGUGUAUAAGUCUCCAUUCUGUCCUAAAAGCAUGUACAAAAAGCUCUCCUGCAACGGUUGAUCAUCACCUCGUUGCCUUAAAUUUCUAGAUUUUCCAUUUUCAGUUCUUCUCUUUUUGAACAACAGAGGAUUGAGCAUCA
B9: chr7:54823571:54823572:-_ENSG00000132432_ENST00000352861|hu_mus|hu_hu_hu_mus_False|8_108 (ssRNA)
RNA: GGGAGUUCUACAGUCCGACGAUCUCCCAUUAUAGCAAAUCCUAUAGCUGUAGCCAUGGCAAUCUUCUGGAAUUCUUUUCUGUCGGGUUUGGUGCAUCUUUUAACCAGCCGAAUUGAGUCCUUUACAAACUGCCGACUGGGCUCCAACAGAGGAUUGAGCAUCA
B10: 31954213_31954333_278_3pUTR_ENSMUSG00000022774_ENSMUST00000023460|mouse|control|control (ssRNA)
RNA: GGGAGUUCUACAGUCCGACGAUCCUUUAUAUCACCACUUUUGCUGAAGAGUUCAUAAAUCUGUUCUUCAGUUGUAUAAAAGGAAAGAUUUCCAACAUACAACGUACAGCUUUUCUUCAGUAACUUUUCUUGUUCUUCAUUGUCCAACAGAGGAUUGAGCAUCA
B11: chr12:39756943:39756944:-_ENSG00000139116_ENST00000544797|hu_mus|hu_hu_hu_mus_False|18_18 (ssRNA)
RNA: GGGAGUUCUACAGUCCGACGAUCGGUUUGGCUGUUACCCCCAAGGGAAUCCUGCAAGAGUCUUGUCAGCUUAGAGUCUCUGUAAGGGACAUGGGUGGCUCUCUUGCUCUUGUCCCCCAAGGCACUUAUUACAUUCCCAAGAGCCAACAGAGGAUUGAGCAUCA
B12: chr22:42024162:42024163:+_ENSG00000196419_ENST00000405878|hu_hu|motif|central (ssRNA)
RNA: GGGAGUUCUACAGUCCGACGAUCCUCAUCUUCACUCUGAGAUUCAAACAUAGCCUUGGAGGCAUCAACCAAAAAAAUCAAACGGUCUCUUCCUGAAUAUUUAUAGUCUCCACUUGCUUCAAGGUUCUCUUCUUGUUCUUCCUCCAACAGAGGAUUGAGCAUCA
B13: chr11:134117569:134117570:+_ENSG00000151502_ENST00000281187|hu_hu|FALSE|FALSE (ssRNA)
RNA: GGGAGUUCUACAGUCCGACGAUCAGAAACAUGUAAACACUGCAGCUGCUUAAUUACAAGUUGCACUGCUUGAUUUAGUACCUAUGCACUCCCAGGUUUGGGGACCUUAAGAGAGGGGGACAGGAGCCUCCCCUCACUUUCACACAACAGAGGAUUGAGCAUCA
B14: chr12:16048344:16048345:+_ENSG00000023734_ENST00000419869|hu_hu|hu_hu_hu_mus_True|18_98 (ssRNA)
RNA: GGGAGUUCUACAGUCCGACGAUCAGAUCGUCCAUAAGUUAUAACCAAAAUCUCUCCUUCAGGAAUAUACUCCAUGCUGCUAACAGACAUAUUAAAAUUCAGAGAUUUCACUUCUGUCAUAGUAGCAUGAUCCCAGAGCCGAACCAACAGAGGAUUGAGCAUCA
B15: chr3:148802587:148802588:-_ENSG00000071794_ENST00000310053|hu_mus|hu_hu_hu_mus_False|98_98 (ssRNA)
RNA: GGGAGUUCUACAGUCCGACGAUCUCCAACAACUUGUCCUCUCAAACUUCCAAAUAAAACCAAAUCUUGCUCUUCAUCACUCGUUAGGAAGUCAUCUGGAGGAAUAAUGUCUUGGAAUUCAAAAUGUGGCAAGAAAGUUGAGUACAACAGAGGAUUGAGCAUCA
B16: chr22:46712247:46712248:+_ENSG00000075218_ENST00000454366|hu_hu|motif|central (ssRNA)
RNA: GGGAGUUCUACAGUCCGACGAUCAGUAGGCAUAACCUUUGUCUUGGAAUUUAGACAGGAAUCUCGCCGUCUGAUACUUCGGGUCUUAUUCAAUUGAGAAGAUUCUGACCAAGCGCAACUGGAGUUCAGCCACUGGCCGCCACCCAACAGAGGAUUGAGCAUCA
B17: chr7:150710151:150710152:-_ENSMUSG00000059119_ENSMUST00000072727|mus_mus|motif|central (ssRNA)
RNA: GGGAGUUCUACAGUCCGACGAUCGACAGCCCGUGGCACGAUGCGCUCACGAAAAAAGUGCCCAAUUUCAAAGUCAGAGGCGGAGGUGAACUCGGAAUCUUCAUCCAGAGAUUCUCCAUCUCCAGAGGCUUUCAGGGGGCUGAACAACAGAGGAUUGAGCAUCA
B18: chr16:13130331:13130332:+_ENSMUSG00000022545_ENSMUST00000023206|mus_hu|FALSE|FALSE (ssRNA)
RNA: GGGAGUUCUACAGUCCGACGAUCCUUCCUAAAUUUCAUCCAGACUUCUUCAGCUUUGCUAUCCUUCUCAAAGGUUUUCCUGUAGAGCCUCAAUAAGAAGGCCUCCGCUCCAAGAGUGAUAUAGUCUCUCAGCUGGGAACAUGUCAACAGAGGAUUGAGCAUCA
B19: chr7:44244176:44244177:+_ENSG00000106636_ENST00000223369|hu_mus|hu_hu_hu_mus_False|58_108 (ssRNA)
RNA: GGGAGUUCUACAGUCCGACGAUCACUAUCAUUCCGGACGUAGACAUGGCAAAGAUACUCUUGUUCUUUGACAGAAGCUCUAGUGCCUUUCCCCGAGCGUUCCACAAUCAGUUGACUUGUAAAGGUCAUGAAUUCCUGCACACUCAACAGAGGAUUGAGCAUCA
B20: chr2:216981417:216981418:+_ENSG00000079246_ENST00000392132|hu_mus|motif|central (ssRNA)
RNA: GGGAGUUCUACAGUCCGACGAUCCUGAUACUGGUCCUUGCCAGCAAGGGCAUUAUCAGUGCCAUCUGUGCCAUAGAGGACGGACGCAAUCUCAUCUUUGCUCUCCGAAAAUACCUGUCGUUGGACAAACAUAGUCAUCACUUUCAACAGAGGAUUGAGCAUCA
B21: chr18:25531195:25531196:-_ENSG00000170558_ENST00000399380|hu_hu|FALSE|FALSE (ssRNA)
RNA: GGGAGUUCUACAGUCCGACGAUCUUUCUUUCCUUUCCUUUUUUUUUUUUUUUGGUACAAAUUAUGUAAAACAUUUGUGCUAAGAACUUUUCUCCCUCCCCAAACCAAAAAGAAAAUAAAAAAUAAAAAAAUUAAAAAAAUUAACAACAGAGGAUUGAGCAUCA
B22: 81593598_81593718_1741_CDS_ENSMUSG00000032705_ENSMUST00000038185|mouse|control|control (ssRNA)
RNA: GGGAGUUCUACAGUCCGACGAUCCAGCAGGCGUAGGCCCUCCUCUGAGCCAAUGGGAGCCUGGAACUCCUUGGCCAGCUGUUGCUUCAGAUGGUUGUCAUAGUAGUUAGAGAUGGCAUGGCAGGAGGUGCAGAGCAACAGCACCAACAGAGGAUUGAGCAUCA

What follows are binders tested against T1, UNK ZnF1-3 (human, UniProt Q9C0B0 31-174) (assay: nsRBNS (natural sequence RNA bind-n-seq); RBNS binding buffer (assumed for nsRBNS): 25 mM Tris pH 7.5, 150 mM KCl, 3 mM MgCl2, 0.01% Triton X-100, 500 ug/ml BSA, 20 U/ml SUPERase-In, 4 C; UNK is unkempt and MSI1 is Musashi-1; names of the RNAs are library labels; protein concentration not given here; high values mean tight binding).
T1 sequence: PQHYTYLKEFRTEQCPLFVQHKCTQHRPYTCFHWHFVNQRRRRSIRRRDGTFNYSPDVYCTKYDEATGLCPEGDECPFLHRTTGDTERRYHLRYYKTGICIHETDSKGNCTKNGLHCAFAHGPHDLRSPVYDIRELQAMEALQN
Binder B1 has a binding signal of 0.678 enrichment R.
For B2, the binding signal was 1.6 enrichment R.
B3 gave a binding signal of 0.901 enrichment R.
In the case of B4, the binding signal is reported as 1.25 enrichment R.
B5 showed a binding signal of 0.973 enrichment R.
B6 showed a binding signal of 0.602 enrichment R.
B7 showed a binding signal of 1.18 enrichment R.
B8 showed a binding signal of 0.716 enrichment R.
B9 was tested, and the binding signal was 0.801 enrichment R.
With B10 the binding signal was 0.266 enrichment R.
Binder B11 has a binding signal of 0.765 enrichment R.
B12 gave a binding signal of 1.29 enrichment R.
For B13, the binding signal was 0.528 enrichment R.
For B14, the binding signal was 0.914 enrichment R.
For B15, the binding signal was 1.03 enrichment R.
With B16 the binding signal was 1.31 enrichment R.
In the case of B17, the binding signal is reported as 1.25 enrichment R.
With B18 the binding signal was 0.867 enrichment R.
For B19, the binding signal was 0.565 enrichment R.
For B20, the binding signal was 0.629 enrichment R.
For B21, the binding signal was 1.19 enrichment R.
B22 showed a binding signal of 0.952 enrichment R.
